Among all 310,000 compounds or so, about 14,000 (4.5%) showed an effect of 50% or more. The effect is printed as a negative number. This is one part of the list.
Target: human ether-à-go-go-related gene (hERG) potassium channel (human, UniProt Q12809)
Experiment: primary screen, population patch clamp on CHO cells stably expressing hERG
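Further: peak tail current of the secondary pulse compared with the same well before compound.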

Chain of human ether-à-go-go-related gene (hERG) potassium channel (Q12809 whole entry, looked up): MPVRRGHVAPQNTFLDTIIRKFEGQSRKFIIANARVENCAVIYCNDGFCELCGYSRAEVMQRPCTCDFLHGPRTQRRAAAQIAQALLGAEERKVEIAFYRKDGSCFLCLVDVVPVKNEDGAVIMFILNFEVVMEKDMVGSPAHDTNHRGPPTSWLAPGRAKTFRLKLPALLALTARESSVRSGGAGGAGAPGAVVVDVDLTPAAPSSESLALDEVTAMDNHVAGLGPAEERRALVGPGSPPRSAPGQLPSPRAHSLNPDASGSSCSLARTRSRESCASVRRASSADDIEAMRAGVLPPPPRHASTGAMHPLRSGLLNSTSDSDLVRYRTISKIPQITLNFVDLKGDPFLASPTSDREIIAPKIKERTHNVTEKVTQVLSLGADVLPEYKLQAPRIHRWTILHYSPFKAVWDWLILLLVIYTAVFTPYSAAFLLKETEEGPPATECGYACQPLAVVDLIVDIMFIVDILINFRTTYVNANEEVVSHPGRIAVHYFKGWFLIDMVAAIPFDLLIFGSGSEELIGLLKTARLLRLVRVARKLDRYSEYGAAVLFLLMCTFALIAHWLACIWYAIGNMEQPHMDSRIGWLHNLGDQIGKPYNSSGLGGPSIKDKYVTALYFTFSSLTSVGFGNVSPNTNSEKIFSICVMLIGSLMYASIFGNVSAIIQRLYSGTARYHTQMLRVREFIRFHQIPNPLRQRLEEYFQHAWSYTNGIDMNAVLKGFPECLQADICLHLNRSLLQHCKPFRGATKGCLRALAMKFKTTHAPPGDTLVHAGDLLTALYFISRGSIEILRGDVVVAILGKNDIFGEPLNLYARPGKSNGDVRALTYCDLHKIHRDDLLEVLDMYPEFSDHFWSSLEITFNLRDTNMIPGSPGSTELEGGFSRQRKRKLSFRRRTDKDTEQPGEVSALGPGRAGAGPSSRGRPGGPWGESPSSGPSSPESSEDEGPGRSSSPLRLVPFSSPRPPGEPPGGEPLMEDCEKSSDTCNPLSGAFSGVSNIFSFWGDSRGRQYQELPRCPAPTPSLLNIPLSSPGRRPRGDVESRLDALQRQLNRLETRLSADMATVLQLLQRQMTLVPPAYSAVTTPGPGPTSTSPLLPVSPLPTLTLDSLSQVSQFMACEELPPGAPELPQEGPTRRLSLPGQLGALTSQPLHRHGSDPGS

SMILES | hERG current change (%, negative = inhibition) at 10uM
CCn1cc(C(=O)Nc2ccc(C)cc2C)c(=O)c2ccc(C)nc21 | 20.3%
CCC(C)(C)NC(=O)CN(Cc1ccco1)C(=O)CCC(=O)Nc1nccs1 | -0.68%
COC(=O)c1ccc(S(=O)(=O)N2CCc3ccccc32)cc1 | 8.09%
CC(=O)Nc1ccc(NC(=O)C(C)OC(=O)C2(c3ccccc3F)CCCC2)cc1 (stereo not shown) | 7.14%
O=c1[nH]c(SCc2ccc([N+](=O)[O-])cc2)nc2[nH]ncc12 | -30.9%
Cc1ccc2nc(N(CCCN(C)C)C(=O)c3ccc(S(=O)(=O)N(C)C)cc3)sc2c1.Cl | -42.1%
O=C(NNC(=O)c1ccc([N+](=O)[O-])cc1)c1ccncc1 | -14.9%
CN(Cc1ccccc1)c1nc2c(c(=O)[nH]c(=O)n2C)n1CCSc1nc2ccccc2[nH]1 | -18.5%
N#Cc1c(N2C(=O)Nc3ccccc3N2O)sc2c1CCCC2 | 7.72%
COCCCNC(=S)NNC(=O)c1ccoc1C | 21.4%
CCN1CCC2(CCN(Cc3cn[nH]c3-c3ccc(OC)c(F)c3)C2)C1 (stereo not shown) | 15.9%
CC(=O)N1c2ccc(S(=O)(=O)N3CCC(C(=O)N4CCN(c5ccc(Cl)cc5)CC4)CC3)cc2CC1C (stereo not shown) | -22.5%
COc1ccc(-c2cc(C(F)(F)F)n3nc(N)nc3n2)cc1 | -2.8%
O=C(CC1Sc2ccccc2NC1=O)Nc1cccc(-c2nnc3n2CCCCC3)c1 (stereo not shown) | 0.432%
COC(=O)c1ccc(C2/C(=C(\O)c3ccc(OC)c(C)c3)C(=O)C(=O)N2c2cc(C)on2)cc1 (stereo not shown) | -1.13%
CC(C)c1cc(N2CCC(=O)NC2=O)cc(C(=O)O)c1O | 34.1%
CC(C)(C)OC(=O)N1CCC(C(=O)Nc2ccc3c(c2)CCC3)CC1 | -29.1%
CCOC(=O)c1c(NC(=S)Nc2ccccc2)sc2c1CCN(C)C2 | -74.2%
COc1ccc(NC(=S)NCc2cccs2)c(OC)c1 | 2.35%
CCCCOC(=O)Cn1c(=N)n(CCN2CCOCC2)c2ccccc21.Cl | -36.3%
CN(C)[C@@H]1C(=O)C(C(N)=O)=C(O)[C@@]2(O)C(=O)C3=C(O)c4c(O)cccc4[C@@](C)(O)C3[C@H](O)C12.Cl (stereo partly shown) | -1.22%
C/C=C/C(=O)OCC(=O)Nc1ccc(F)cc1Cl | -0.779%
Cc1cc(=O)oc2cc(NC(=O)c3ccccc3Cl)ccc12 | 28%

SMILES | hERG current change (%, negative = inhibition) at 10uM
Cc1cc2c(OCC(O)CNCc3ccco3)cccc2[nH]1 (stereo not shown) | 19.5%
Cc1nn(CCOc2ccccc2)c(=O)n1-c1c(F)cccc1F | -7.44%
CCOC(=O)c1cc(-c2ccc(F)cc2)n(CC(=O)NC(C)CC)c1C (stereo not shown) | 12.3%
Cc1ccc(C(=O)C(C)OC(=O)c2n[nH]c(=O)c3ccccc23)cc1 (stereo not shown) | -9.64%
Cl.OCCNc1nc(N2CCN(c3ccccc3)CC2)nc2ccccc12 | -74.6%
CCn1c(CC(=O)Nc2ccccc2F)nnc1SCC(=O)N1CCOCC1 | 10.6%
Clc1cccc(N/N=C/c2ccncc2)c1 | -10.2%
COc1cccc(CN2CCN(C(=O)CC(C)C)CC2)c1 | -13.1%
CCN(CC(=O)Nc1c(F)cccc1F)C(=O)c1ccc2c(c1)OCO2 | 2.6%
COc1cc2c(cc1NC(=O)c1cccnc1)CCCC2 | 14.2%
Cc1cc(Nc2c(C#N)c(N)nn2C)ccc1F | 6.99%
N#CCCn1cc(CNC2CCC(O)CC2)c2ccccc21 (stereo not shown) | 5.19%
BrCC(Br)C1CCC(Br)C(Br)C1 (stereo not shown) | 20.6%
COC(=O)c1sccc1NC(=O)c1ccccc1Br | -4.82%
Cc1ccc(-c2[nH]ncc2C(=O)c2ccc(Br)cc2)c(O)c1 | -9.43%
COc1ccc(-n2c(SCC(=O)C(C)(C)C)nc3ccsc3c2=O)cc1 | 6.67%
O=C(/C=C/c1ccc(Cl)c([N+](=O)[O-])c1)Nc1cccnc1 | -17.3%
CNCC(=O)N1CCN(c2ncc(C(F)(F)F)cc2Cl)CC1.Cl | -22.3%
CCCCC(=O)N(Cc1nc2sc(C)c(C)c2c(=O)[nH]1)C1CCCC1 | -13.5%
O=C(Nc1ccc(S(=O)(=O)N2CCCC2)cc1)c1ccc(Br)o1 | 14.8%
Cc1ccc(CNC(=O)C2CCCCC2C(=O)O)cc1 (stereo not shown) | 0.0308%
COc1ccc(CC(=O)Nc2ccc(S(=O)(=O)N3CCOCC3)cc2)cc1 | -33.5%
CCCNS(=O)(=O)c1ccc(CCC(=O)N2CCCC2)cc1 | 10.9%

SMILES | hERG current change (%, negative = inhibition) at 10uM
CCOc1ccc(NC(=O)c2cc(S(=O)(=O)N3CCCCC3)c[nH]2)cc1 | 21%
CCc1ccc(OC(C)C(=O)Nc2ccc(S(=O)(=O)Nc3nccs3)cc2)cc1 (stereo not shown) | 17.7%
COc1ccc(/C(N)=N/OC(=O)C2CCCCC2)cc1 | 18.7%
O=C(O)C1C2C=CC(C2)C1C(=O)N1CCc2ccccc21 (stereo not shown) | 3.23%
CN1CCN(c2nc(-c3ccc(Br)cc3)nnc2-c2ccccc2)CC1 | -63.5%
COc1ccc(/C=C2/N=C3CCCCCN3C2=O)cc1OC | 12%
O=c1[nH]c(=S)[nH]nc1Cc1ccccc1 | 19.3%
CSc1ccc(/C=N/N2CCN(Cc3ccc(C)cc3C)CC2)cc1 | 12.8%
COc1ccc(OC)c(NC(=O)CCN2CCN(c3ccccc3)CC2)c1 | -32.1%
CC1=C(C(=O)OC(C)C)C(c2c[nH]c3ccccc23)n2ncnc2N1 (stereo not shown) | -0.57%
CC(Oc1ccc(Cl)cc1Cl)c1nc(-c2ccc(NC(=O)c3ccco3)cc2)no1 (stereo not shown) | 26.3%
C=CCn1c(SCC(=O)Nc2ccc(OC)cc2)nc2c([nH]c3ccccc32)c1=O | 11.8%
Cc1cccc2c1-c1sc(C(=O)N3CCc4ccccc4C3)cc1CO2 | -2.75%
COC(=O)c1sccc1NC(=O)c1c(-c2ccccc2)noc1C | -26.5%
O=C(Nc1ncn[nH]1)c1cc([N+](=O)[O-])ccc1Cl | 18.9%
COc1cc(SC)ccc1C(=O)NCCc1c[nH]c2ccccc12 | 2.74%
Cc1ccccc1N(CC(=O)NC1CCCC1)C(=O)c1oc(C(C)(C)C)cc1C | 6.63%
NNc1ncnc2sc3c(c12)CCC3 | 18.5%
COc1ccc(C(CC(=O)c2ccc(C)cc2)C(C#N)C#N)cc1OC (stereo not shown) | -1.33%
O=C(NCC1CCCO1)C1CC(=O)N(C2CCCC2)C1 (stereo not shown) | 9.77%
CC(=O)NC1CC2CCC(C1)N2 (stereo not shown) | -10.4%
O=C(c1ccccc1SCc1ccccc1)N1CCOCC1 | 12.3%
CCOC(=O)N1CCN(Cc2cn[nH]c2-c2cc3ccccc3o2)CC1 | -34.4%

SMILES | hERG current change (%, negative = inhibition) at 10uM
c1ccc2c(C[C@@H]3CNCCN3CC3CCCCC3)cccc2c1 | 3.16%
COc1cccc(CNC(=O)c2cc3c(C)nc4ccccc4c3o2)c1 | -20.8%
CCN1CCN(Cc2cc(Br)cc(OC)c2O)CC1 | -20.4%
Cc1ccccc1-c1nnnn1C1CCS(=O)(=O)C1 (stereo not shown) | 17.4%
CC1CCCC(NC(=O)CSc2ncccn2)C1C (stereo not shown) | 7.79%
CC1c2cc3c(cc2CCN1C(=O)c1cccc(F)c1)OCCCO3 (stereo not shown) | 5.89%
CCc1c(C)nc(SC/C=C/c2ccccc2)[nH]c1=O | 7.22%
CCCC1C2CN(C(C)C)CC=C2C(C#N)=C(N)C1(C#N)C#N (stereo not shown) | -41%
O=C(Nc1ccc2c(c1)CCC2)C1COc2ccccc2O1 (stereo not shown) | -7.58%
CCCc1c(C(=O)N/N=C/C(C)=C/c2ccccc2)nnn1-c1nonc1N | 8.12%
O=C(CCN1C(=O)/C(=C\c2ccccc2)SC1=S)NNC(=O)c1cccnc1 | 10.8%
CC1CCC2(CC1)NC(=O)N(CC(=O)c1ccc(Cl)s1)C2=O (stereo not shown) | 19.5%
O=C1CN(C(=O)c2ccccc2F)C(c2ccccc2)c2cc(F)ccc2N1 (stereo not shown) | -34.4%
O=C(Nc1ccc(C(F)(F)F)cc1)c1cccn(Cc2ccc3c(c2)OC(F)(F)O3)c1=O | 2.4%
COc1ccc(NC(=S)N2CCC(C(=O)c3ccc(C)cc3)CC2)c(OC)c1 | 24.7%
CC(C)(C)c1ccc(/C=N/OCC(=O)NCc2ccc(F)cc2)cc1 | -2.59%
COc1ccc(CN2CCNC(=O)C2CC(=O)NC2CCCCCC2)c(C)c1C (stereo not shown) | 2.04%
COCCOC(=O)C1=C(C)N(Cc2ccccc2)C(=O)NC1c1ccc(OC)cc1 (stereo not shown) | -17.7%
COc1ccc(Cc2nc3ccc(C(=O)NCC4COCCO4)cc3o2)cc1OC (stereo not shown) | 17.6%
CC(C)=C1C2CCC1C1C(=O)N(c3ccc4c(c3)OCO4)C(=O)C21 (stereo not shown) | 2.92%
Cc1ccc(/C=N/NC(=O)c2nnn(-c3nonc3N)c2CSc2ccccc2)cc1 | 1.53%
CCOC(=O)Cc1cc(=O)c2c(=O)n(-c3ccccc3)[nH]c2[nH]1 | 9.55%

Source: article PMC4336329 (PLoS ONE, 2015)
